# Experimental data from the supplement of paper PMC8728848.
# The list shows a part of the results.
# Tests used:
# Test in all cases: glycan array binding signal (z-score within array); higher = stronger binding
# Conditions in all cases: glycan notation: IUPAC condensed, linker removed
# [1] = biological target: Gal(b1-4)GlcNAc(b1-3)[Gal(b1-4)GlcNAc(b1-6)]Gal(b1-4)GlcNAc
# How it was run: (§1)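 From the Consortium for Functional Glycomics database, 3228 arrays were curated, keeping only those whose protein sequence was available. Binding is given as a within-array Z-score averaged across arrays sharing a protein sequence and across linkers. Negative Z-scores can be read as non-binding.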
# [2] = biological target: Gal(b1-4)GlcNAc(b1-3)[Gal(b1-4)GlcNAc(b1-6)]GalNAc
# How it was run: as §1
# [3] = biological target: Gal(b1-4)GlcNAc(b1-3)[GlcNAc(b1-6)]Gal(b1-4)GlcNAc
# How it was run: as §1
# [4] = biological target: Gal(b1-4)GlcNAc(b1-6)Gal(b1-4)GlcNAc
# How it was run: as §1
# [5] = biological target: Gal(b1-4)GlcNAc(b1-6)Gal(b1-4)GlcNAc(b1-6)GalNAc
# How it was run: as §1
# [6] = biological target: Gal(b1-4)GlcNAc(b1-6)GalNAc
# How it was run: as §1
# [7] = biological target: Gal(b1-4)GlcNAc(b1-6)[Gal(b1-3)]GalNAc
# How it was run: as §1
# Gal(b1-6)Gal = biological target: Gal(b1-6)Gal
# How it was run: as §1
# Gal3S(b1-3)GalNAc = biological target: Gal3S(b1-3)GalNAc
# How it was run: as §1
# Gal3S(b1-3)GlcNAc = biological target: Gal3S(b1-3)GlcNAc
# How it was run: as §1
# [8] = biological target: Gal3S(b1-3)[Fuc(a1-4)]GlcNAc
# How it was run: as §1
# Gal3S(b1-4)Glc = biological target: Gal3S(b1-4)Glc
# How it was run: as §1
# Gal3S(b1-4)Glc6S = biological target: Gal3S(b1-4)Glc6S
# How it was run: as §1
# Gal3S(b1-4)GlcNAc = biological target: Gal3S(b1-4)GlcNAc
# How it was run: as §1
# Gal3S(b1-4)GlcNAc6S = biological target: Gal3S(b1-4)GlcNAc6S
# How it was run: as §1
# [9] = biological target: Gal3S(b1-4)[Fuc(a1-3)]Glc
# How it was run: as §1
# [10] = biological target: Gal3S(b1-4)[Fuc(a1-3)]Glc6S
# How it was run: as §1
# Gal3S4S(b1-4)GlcNAc = biological target: Gal3S4S(b1-4)GlcNAc
# How it was run: as §1
# Gal3S6S(b1-4)GlcNAc = biological target: Gal3S6S(b1-4)GlcNAc
# How it was run: as §1
# Gal3S6S(b1-4)GlcNAc6S = biological target: Gal3S6S(b1-4)GlcNAc6S
# How it was run: as §1
# Gal4S(b1-4)GlcNAc = biological target: Gal4S(b1-4)GlcNAc
# How it was run: as §1
# Gal4S6S(b1-4)GlcNAc = biological target: Gal4S6S(b1-4)GlcNAc
# How it was run: as §1
# Gal6S(b1-3)GlcNAc = biological target: Gal6S(b1-3)GlcNAc
# How it was run: as §1
# Gal6S(b1-3)GlcNAc6S = biological target: Gal6S(b1-3)GlcNAc6S
# How it was run: as §1
# Gal6S(b1-4)Glc = biological target: Gal6S(b1-4)Glc
# How it was run: as §1
# Gal6S(b1-4)Glc6S = biological target: Gal6S(b1-4)Glc6S
# How it was run: as §1
# Gal6S(b1-4)GlcNAc = biological target: Gal6S(b1-4)GlcNAc
# How it was run: as §1
# Gal6S(b1-4)GlcNAc6S = biological target: Gal6S(b1-4)GlcNAc6S
# How it was run: as §1
# GalNAc(a1-3)Gal = biological target: GalNAc(a1-3)Gal
# How it was run: as §1
# GalNAc(a1-3)GalNAc = biological target: GalNAc(a1-3)GalNAc
# How it was run: as §1
# [11] = biological target: GalNAc(a1-3)GalNAc(a1-3)Gal(a1-4)Gal(b1-4)GlcNAc
# How it was run: as §1
# [12] = biological target: GalNAc(a1-3)GalNAc(b1-3)Gal(a1-4)Gal(b1-4)Glc
# How it was run: as §1
# [13] = biological target: GalNAc(a1-3)GalNAc(b1-3)Gal(a1-4)Gal(b1-4)GlcNAc
# How it was run: as §1
# GalNAc(b1-3)Gal = biological target: GalNAc(b1-3)Gal
# How it was run: as §1
# [14] = biological target: GalNAc(b1-3)Gal(a1-4)Gal(b1-4)GlcNAc
# How it was run: as §1
# [15] = biological target: GalNAc(b1-3)Gal(a1-4)Gal(b1-4)GlcNAc(b1-3)Gal(b1-4)Glc
# How it was run: as §1
# [16] = biological target: GalNAc(b1-3)Gal(a1-6)Gal(b1-4)Glc
# How it was run: as §1
# GalNAc(b1-3)GalNAc = biological target: GalNAc(b1-3)GalNAc
# How it was run: as §1
binder,measurement,setting,value
"ConA (Canavalia ensiformis), P02866 (protein) MAISKKSSLFLPIFTFITMFLMVVNKVSSSTHETNALHFMFNQFSKDQKDLILQGDATTGTDGNLELTRVSSNGSPQGSSVGRALFYAPVHIWESSAVVASFEATFTFLIKSPDSHPADGIAFFISNIDSSIPSGSTGRLLGLFPDANVIRNSTTIDFNAAYNADTIVAVELDTYPNTDIGDPSYPHIGIDIKSVRSKKTAKWNMQNGKVGTAHIIYNSVDKRLSAVVSYPNADSATVSYDVDLDNVLPEWVRVGLSASTGLYKETNTILSWSFTSKLKSNEIPDIATVV",glycan array binding signal (z-score),[1],-0.208
same,glycan array binding signal (z-score),[2],-0.214
same,glycan array binding signal (z-score),[3],-0.234
same,glycan array binding signal (z-score),[4],-0.206
same,glycan array binding signal (z-score),[5],-0.311
same,glycan array binding signal (z-score),[6],-0.218
same,glycan array binding signal (z-score),[7],-0.234
same,glycan array binding signal (z-score),Gal(b1-6)Gal,-0.254
same,glycan array binding signal (z-score),Gal3S(b1-3)GalNAc,-0.284
same,glycan array binding signal (z-score),Gal3S(b1-3)GlcNAc,-0.227
same,glycan array binding signal (z-score),[8],-0.301
same,glycan array binding signal (z-score),Gal3S(b1-4)Glc,-0.171
same,glycan array binding signal (z-score),Gal3S(b1-4)Glc6S,0.35
same,glycan array binding signal (z-score),Gal3S(b1-4)GlcNAc,-0.294
same,glycan array binding signal (z-score),Gal3S(b1-4)GlcNAc6S,-0.258
same,glycan array binding signal (z-score),[9],-0.21
same,glycan array binding signal (z-score),[10],-0.137
same,glycan array binding signal (z-score),Gal3S4S(b1-4)GlcNAc,-0.275
same,glycan array binding signal (z-score),Gal3S6S(b1-4)GlcNAc,-0.287
same,glycan array binding signal (z-score),Gal3S6S(b1-4)GlcNAc6S,-0.193
same,glycan array binding signal (z-score),Gal4S(b1-4)GlcNAc,-0.272
same,glycan array binding signal (z-score),Gal4S6S(b1-4)GlcNAc,-0.282
same,glycan array binding signal (z-score),Gal6S(b1-3)GlcNAc,-0.152
same,glycan array binding signal (z-score),Gal6S(b1-3)GlcNAc6S,-0.273
same,glycan array binding signal (z-score),Gal6S(b1-4)Glc,-0.287
same,glycan array binding signal (z-score),Gal6S(b1-4)Glc6S,-0.223
same,glycan array binding signal (z-score),Gal6S(b1-4)GlcNAc,-0.263
same,glycan array binding signal (z-score),Gal6S(b1-4)GlcNAc6S,-0.21
same,glycan array binding signal (z-score),GalNAc(a1-3)Gal,-0.275
same,glycan array binding signal (z-score),GalNAc(a1-3)GalNAc,-0.271
same,glycan array binding signal (z-score),[11],-0.224
same,glycan array binding signal (z-score),[12],-0.201
same,glycan array binding signal (z-score),[13],-0.203
same,glycan array binding signal (z-score),GalNAc(b1-3)Gal,-0.229
same,glycan array binding signal (z-score),[14],-0.284
same,glycan array binding signal (z-score),[15],-0.252
same,glycan array binding signal (z-score),[16],-0.234
same,glycan array binding signal (z-score),GalNAc(b1-3)GalNAc,-0.281
